The source of these data is the RNAGym collection of RNA variant scans (doi:10.7554/elife.90254).

To fix the notation:
B1: LINE1-mini (parent)
chain: GGCAGAGCUCAACACAGCGUGGCAAAGUGGCUGUGGCUAGACUGCC

The source gives no read counts; variants with many changes may rest on few reads.

In the data set the parent is B1. As to the kind of experiment: self-cleavage, relative activity (ratio to wild type); higher = more cleavage; in vitro, sequencing; the parent is a self-cleaving ribozyme.
With GGCAUAGCGCACCACAGCGUGGCAAAGUUGCUGUGGCUAGACUGAC, the self-cleavage is 0.01. Turning to GGCAGAGCUCAACACAGAGUGCCAAACUGGCAGUGGCUAGACUGCC, the self-cleavage was determined as 0.01. For the variant GGCAGAGCUCAACUCAGCGUGGCAAAGUGGCUGUGGCUAGAAAGUC, the self-cleavage is 0. Consider GUCAGAGCUCAACACAGCGUGGCAAAGUGGCUGCAGCUAUACUGCC, for which the self-cleavage was found to be 0.08. On to GGCAGAGCUCAAGACAGCUUGGCAAAGUGGCGGUGGCUAGACUGCC, for which the self-cleavage turned out to be 0.07. For the variant GGGGGAGCUCAACACAGCGUGGCAAAGUGGCUGUGGAUAGACUGCC, the self-cleavage stood at 0.08. On to GGCAGAGCUCAGCACAGCGUGGCAAAGUAGCAGUGGCUAGACUGCC, for which the self-cleavage worked out at 0.01. Take GGAAGAGCCCAACACAGGGUUGAUAAGUUGCUGUGGGUAGACUGCC: the self-cleavage is 0.02.

For UGCAUAGCUCAACACAGCGUGGCAAAGUGGCUUUGGCUAGACUGCC, the self-cleavage stood at 0.07. Turning to GGCAAAGCUCAACACAGCGUGGCAAAGGGGCUGCGGCUAGACUGCC, the self-cleavage is 0.02.

GGCAGAGCUCAACAGAGAGUGGCAAAGUGGCUGUGGCUUGACUGCC: the self-cleavage was determined as 0.04. In the case of GGCAGAGCUCAACAAAGCAUGGCAAACUGGCUGUGGCUAGACUGCC, the self-cleavage came out at 0.03. In the case of AGCAGAGCUCAACACAGCGUGGCAAAGUGGCUGAGCCUAGACUGCC, the self-cleavage came out at 0.05. GGCAGAGAUCAUCACAGCGUGGUAAAGUGGCUGUGGCUAGACUGUC: the self-cleavage turned out to be 0.27. Then GACAGAGCUCAACACAACGUGGCAAAGUGGCUGUGGAUAAACUGCC, with 0.02; and GGAAUAGCUCAAAACAGCGUGGCAAAGUGGCUGUGGCUAGACUGGC, with 0.18; and GACAGAGCUCAACACUGGGUGCCAAGGUGGCCGUGGCUAGACUGCC, with 0.14.

Turning to GGCAGAUCUCAACAGAGCGUCGCAAAGUGGCUGUGGCCAGACUGCC, the self-cleavage amounted to 0.05.

Turning to GUCAGAGCUCCACACAGCUUGGCAAAGUGGCUGUGGCUAGACUGAC, the self-cleavage came out at 0.01. Turning to GGCCGAGCUCAACACAGCGUGACAAAGUUGCUGUGGCUAGACUGCU, the self-cleavage turned out to be 0.37. Consider GGCAGAGCUCAACGCACCGUGGCAAAGUGGCUGUGGGUAGACUGCC, for which the self-cleavage is 0.03. Regarding GGCAGAGCUCAACAAUGCGUGGCAAACUGGCUGUGGCUAGACUACU, the self-cleavage was 0.06. GGCAGAGCUCAACACAUCUUGGCCAAGUGGCUGUAGCUAGACUGCC: the self-cleavage came to 0.01. Turning to GGCUGAGCACAACACACCGGGGCAAAGUGGCUGUGGCUAGACUGCC, the self-cleavage is 0.08. Then GGCCGAGCUCAACACAGCGUGGCAAAGUGGCUGUGGCUAGGCUCCC, with 0.07. Regarding GGCAGAACUCAACCCAGCAUGGCAAAGUGGCUGUGGCUAGACUCCC, the self-cleavage amounted to 0.06. On to GGCAGAGCUCAACACAGCGUGGCAAAGUGGCUGUGUCGAGACUGCU, for which the self-cleavage worked out at 0.02. Then GGCAGAGCUCAUGACAGCGUGGCAAAGUGGCUGUGGCUAGACUGAC, with 0.04; and GGCAGAGAGCAACACAGCGUGGCAAAGUCUCUGUGGCUAGACUGCG, with 0.03; and GGCAGAGUUCAACACAGCGUGGCACAAUGGCUGUGGCUAGACUGCC, with 0.1.

For the variant GGCAUAGCUCAACCCAGCGUGGCAAAGUGGCUGAGGCUAGACUACA, the self-cleavage worked out at 0.06. On to GGCAGAGCUCAACACAGAGCGGCAAUGUGGCUGUGGCUAUACUGCC, for which the self-cleavage turned out to be 0.02. Regarding GGCAGAGCUCAGCACAGCGUGGCCAAGUGGCUUCGGCUAGACUGCA, the self-cleavage came out at 0.01.

On to GGCAGAGCUCAAAACAACGCGGCAAAGUGGCUGUUGCUAGACUGCC, for which the self-cleavage stood at 0.13. Then GGCAGAGCUCAACACAGCCUGGCAAAGUGGCUGGGGCUAGACUGGA, with 0.08. Then GGCAGUGCACAACACAGCGUGGCAAACUGGCUGUGGCUGGACUGCC, with 0.02; and GGCAGAGCUCAACACAGGGUGGCAAAGUGGCCUUGGCUAUACUGCC, with 0.02; and GUCAGAGCUCCUCACAGCGUGGCAAAGUGGCUGUGGCUAGACUGCC, with 0.01.

As to GGCAGAGCUCAACACAGCGUGGCAAAGGGGCUGUGACUAGAAUGCC, the self-cleavage turned out to be 0.16.

For GGCCGAGCUCAACAAAGCGUGGCAAAGUGGAUGUGGCUAGACUGCC, the self-cleavage amounted to 0.04. With GGUAAAGCUCAUCACAGCGUGGCAAAGUGGCUGUGGCUAGACUGCC, the self-cleavage worked out at 0.1. Consider GGCUGAGUUGAACACAGCGUGGCAAAGUGGCUGUGGCGAGGCUGCC, for which the self-cleavage turned out to be 0.03. For GGCAGAGCUCAACACAGCGUGGCAAUUUGAUGGUGGCUAGACUGCC, the self-cleavage was 0.08. Consider GGCAGCGCUCAGCACAGCGUGGCAAAGUGGCUGUGGCUAGGCUGCC, for which the self-cleavage was 0.06. For the variant GGCAGAGCUCAACACACCGUGGCAAAGUGGAUGUGGCUAGGCUUCC, the self-cleavage came to 0.01. For the variant GGUAGAAAUCAACACAGUGUGGCAAGGUGGCCGUGGCGAGACUGCC, the self-cleavage was determined as 0.28. Consider GGCAGAGCCCUGUACAGCGUGGCAAAGUAGCUGUCGCUAGACUGCC, for which the self-cleavage was 0.01. As for GGCCGAGCUCAACACAGUGUGGCAAAGGGGCUGUGACUAGACUGCC, the self-cleavage was found to be 0.05.

Regarding UGCAGAGCUCAACACAGCGUGGCAAAGUGGCCGUGGCGAGACUGCC, the self-cleavage stood at 0.09. In the case of GGCAGAGAUCAACACAGCCUGGCAAAGUGGCUGUGGUUAGACCGCC, the self-cleavage was determined as 0.05. Consider GGCAGUCCUCGGCACAGCGUGGCAAAGUGGCUCUGUCUAGACUGCC, for which the self-cleavage turned out to be 0.02. Consider GGCAGAGCUAAACUCAGCGUGGCAAAGUGGCUGUGGCGAGACUGCC, for which the self-cleavage was 0.05. For CACAGAGCUCAACACAGCGUGGCAAAGUGGCUGUGUCUAGACUGCC, the self-cleavage worked out at 0.

Regarding GGCAGAGCUCAACACCGCGUUGCAAAGUCGCUGUGGCUUGACUGCC, the self-cleavage worked out at 0.15. Consider GGCAGACCUCAACAAAGCGUGGCAAAGUGGCUGUGUCUAGACUGGC, for which the self-cleavage came to 0.02.

Take GGCAGAGCUCAACACAGCUUGGCAAAGUGGCUGUGGCUAGGCUGAC: the self-cleavage came out at 0.03.
